# Source: PubChem BioAssay AID445 (National Center for Advancing Translational Sciences (NCATS), 2006)
# About 40 (0.04%) of roughly 110,000 compounds were called active. This list was built around the results that the source calls inconclusive (neither active nor inactive); the mix of calls is not that of the screen. Calls follow the shape of the dose curve; as a rule, active = well fitted curve in the direction sought with a large enough effect in the signal ratio (not every such curve was filed as active); inconclusive = small, poorly fitted or top-dose-only effect, or a change in a side signal; inactive = flat fitted curve, though single readings scatter; the % refers to the signal ratio. Where the call is inconclusive, the potency comes from a doubtful curve fit.
# Assay: IkB Signaling;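 as to IkBa stabilization activation: 0% = basal untreated cells and 100% = reference inhibitor full response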
# Conditions: ABC-DLBCL IkBa-CBG/CBR dual luciferase ratio (green luciferase fused to IkBa over red control in OCI-Ly3 lymphoma cells), 4 h, scaled: untreated 0%
# How it was run: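 Curves were fitted separately to fusion (green), unfused (red) and ratio luminescence, then classed by r2, magnitude and activity. Cells: OCI-Ly3, 4 h compound plus doxycycline at 37C; 10 uM MG-132 defined full response.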
# [1] = IkBa stabilization activation: at 57.1 µM (top of the series), proteasome inhibitor 100% unless noted
# [2] = at 57.1 µM (top of the series), proteasome inhibitor 100%
# Potency is read from the fitted curve at half-maximal effect.
smiles,measurement,setting,value
O=C(Nc1ccc([As](=O)(O)O)cc1)Nc1cccc(Cl)c1Cl,IkBa stabilization activation,[1],"inactive: -0.696% [at 11.4 µM, scaled: untreated 0%, proteasome inhibitor 100%]"
Cc1nc2ccccc2c(=O)n1-n1cnnc1,IkBa stabilization activation,[1],inactive
C/C=C1\C[C@H](C)[C@](O)(CO)C(=O)OCC2=CCN3CC[C@@H](OC1=O)[C@@H]23,IkBa stabilization activation,[1],"inactive: 0.0409% [at 11.4 µM, scaled: untreated 0%, proteasome inhibitor 100%]"
Cc1ccc(S(=O)(=O)N(C)CCCC(=O)N2CCN(c3ccccn3)CC2)cc1,IkBa stabilization activation,[1],inactive
CC[C@@]1(O)C(=O)OCc2c1cc1n(c2=O)Cc2cc3ccccc3nc2-1,Potency,[1],"inconclusive: 1.26 µM [signal inhibitor, full curve]"
same,IkBa stabilization activation,"at 25.6 µM (top of the series), proteasome inhibitor 100%",inconclusive: -6.71% [signal inhibitor]
same,IkBa stabilization activation,[2],inconclusive: -0.653% [signal inhibitor]
CN1CCN(C(=O)O[C@@H]2c3nccnc3C(=O)N2c2ccc(Cl)cn2)CC1,IkBa stabilization activation,[1],inconclusive: 14%
CCN(CC)Cc1c[nH]c2ccccc12,IkBa stabilization activation,[1],inconclusive: 16.4% [signal inhibitor]
C[C@]1(C(=O)O)[C@@H]2CC[C@@H](O2)[C@@]1(C)C(=O)O,Potency,[1],"inconclusive: 31.6 µM [rising, partial curve]"
COc1cccc(N2CCN(Cc3ccc(Cl)cc3)CC2)c1,IkBa stabilization activation,[1],inactive
N[C@H](Cn1cc(I)c(=O)[nH]c1=O)C(=O)O,IkBa stabilization activation,[1],inactive
COC(=O)c1c(C)ccc2c(O)c3c(cc12)C(=O)c1c2c(cc(O)c1C3=O)[C@@]1(C)O[C@@](C)(O2)[C@@H](O)[C@H](N(C)C)[C@H]1O,IkBa stabilization activation,[1],"inconclusive: -0.872% [signal inhibitor] [at 11.4 µM, scaled: untreated 0%, proteasome inhibitor 100%]"
CC(C)c1nccn1Cc1ccc(Cl)cc1Cl,IkBa stabilization activation,[1],"inactive: 3.35% [at 11.4 µM, scaled: untreated 0%, proteasome inhibitor 100%]"
C[C@@]12CC[C@H]3[C@@H](CC[C@]4(O)C[C@H](O)CC[C@@]34C=O)[C@]1(O)CC[C@@H]2C1=CC(=O)OC1,IkBa stabilization activation,[1],"inconclusive: 2.65% [signal inhibitor] [at 25.6 µM, scaled: untreated 0%, proteasome inhibitor 100%]"
CC(=NCCCN1CCOCC1)c1c(O)n(-c2ccccc2C)c(=O)[nH]c1=O,Potency,[1],"inconclusive: 3.16 µM [signal inhibitor, partial curve]"
O=c1[nH]c(=O)n(C2CCCCC2)c(O)c1C1NCCc2ccccc21 (stereo not drawn),IkBa stabilization activation,[1],inconclusive: 16.4% [signal inhibitor]
CC(C)n1cc2c3c(cccc31)[C@@H]1C[C@H](C(=O)O[C@@H](C)[C@H](C)O)CN(C)[C@H]1C2,IkBa stabilization activation,[1],inactive
O=C(O)/C=C\c1ccc[c]([Sb](=[O])([OH])[OH])c1,IkBa stabilization activation,[1],"inactive: 1.69% [at 11.4 µM, scaled: untreated 0%, proteasome inhibitor 100%]"
CNc1ccc2oc(C[C@@H]3O[C@@]4(CC[C@H]3C)O[C@@H]([C@@H](C)C(=O)c3ccc[nH]3)[C@@H](C)C[C@H]4C)nc2c1C(=O)O,Potency,[1],"inconclusive: 3.16 µM [rising, full curve]"
O=C(Cn1ncc2c3ccccc3n(Cc3ccc(F)cc3)c2c1=O)N1CCC2(CC1)OCCO2,IkBa stabilization activation,[1],inconclusive: 2.85% [signal inhibitor]
CCC(=Nc1ccc(OC)cc1OC)c1c(O)[nH]c(=O)[nH]c1=O,IkBa stabilization activation,[1],inactive
COc1ccc2[nH]cc(CCN)c2c1,IkBa stabilization activation,[1],inactive
Cc1cccc2sc(NC(=O)c3cccn(Cc4ccccc4)c3=O)nc12,Potency,[1],inconclusive: 3.98 µM [signal inhibitor]
[O]=[Cr](=[O])([OH])[O][Cr](=[O])(=[O])[OH],IkBa stabilization activation,[1],inactive
CCCCn1c(O)c(C=NC2CCCCC2N)c(=O)[nH]c1=O (stereo not drawn),IkBa stabilization activation,[1],inactive
Cc1cc(NC(=O)c2cccn(Cc3ccccc3)c2=O)no1,IkBa stabilization activation,[1],inconclusive: 2.01% [signal inhibitor]
O=C(CN1C(=O)CN=C(c2ccccc2)c2ccccc21)Nc1cccc(C(F)(F)F)c1,IkBa stabilization activation,[1],inconclusive: 3.04% [signal inhibitor]
CCCCCCCCCc1ccc(O)cc1,IkBa stabilization activation,[1],inactive
Nc1c(C(=O)Nc2cccc(Br)c2)sc2nc3c(cc12)N1CCC3CC1,IkBa stabilization activation,[1],inconclusive: 14.8% [signal inhibitor]
Cc1ccc(-c2nc3ccccc3c(=O)n2-n2cccc2)cc1,IkBa stabilization activation,[1],inactive
CC[C@]1(O)C(=O)OCc2c1cc1n(c2=O)Cc2cc3ccccc3nc2-1,IkBa stabilization activation,[1],"inconclusive: -5.67% [signal inhibitor] [at 11.4 µM, scaled: untreated 0%, proteasome inhibitor 100%]"
CN(CC1COc2ccccc2O1)c1nc(-c2cccnc2)nc2ccccc12 (stereo not drawn),IkBa stabilization activation,[1],inconclusive: -0.216% [signal inhibitor]
COC(=O)[C@H](N)CCCN=C(N)N[N+](=O)[O-],IkBa stabilization activation,[1],inactive
CCC(=NCc1ccc2c(c1)OCO2)c1c(O)n(C2CCCCC2)c(=O)[nH]c1=O,IkBa stabilization activation,[1],inconclusive: 8.25% [signal inhibitor]
CC(C)(C)OOC(=O)c1ccccc1,IkBa stabilization activation,[1],inconclusive: 6.22% [signal activator]
CCCCc1ccc(C(=O)O)nc1,IkBa stabilization activation,[1],inactive
Cc1ccc2c(c1)C(c1ccccc1)NCC(=O)N2 (stereo not drawn),IkBa stabilization activation,[1],inactive
CCN(CC)C(=O)c1ccc(NC(=O)CCn2nc(-c3ccc(C)cc3)c3ccccc3c2=O)cc1,IkBa stabilization activation,[1],inconclusive: 8.4% [signal inhibitor]
CCOc1ccc(CN(CCc2ccc3c(c2)OCO3)Cc2cccc(C)c2)cc1,IkBa stabilization activation,[1],inconclusive: 0.767% [signal inhibitor]
CN1[C@@H]2CC[C@H]1CC(O[C@@H](c1ccccc1)c1ccc(Cl)cc1)C2 (stereo partly drawn),IkBa stabilization activation,[1],inconclusive: -0.927% [signal inhibitor]
same,IkBa stabilization activation,[2],inactive: -0.704%
C=C1C/C(=C\C)C(=O)O[C@@H]2CCN3CC=C(COC(=O)[C@]1(C)O)[C@H]23,IkBa stabilization activation,[1],"inactive: 2.12% [at 11.4 µM, scaled: untreated 0%, proteasome inhibitor 100%]"
